± gives the standard deviation of the averaged measurements. The list shows a part of the results.
Tested on: PfAP2-LT AP2 domain (GST-tagged)
Test: gcPBM binding intensity (ln(normalized median fluorescence intensity)); higher = stronger DNA binding
Procedure, shortened: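 For binding intensity, the highest Masliner-normalised natural-log median intensity across replicate spots of either probe orientation was taken. Protein bound to the array was stained with Alexa488 anti-GST antibody and scanned at 488 nm. The protein, GST-tagged P. falciparum DNA-binding domains from E. coli at about 25 μg on average, had been applied for 1 h to an Agilent 4 × 180k array of primer-extended double-stranded 36-bp intergenic genomic probes and negative controls.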

| Sequence | gcPBM binding intensity (ln) |
| --- | --- |
| AATTCAAAATAAAAATGTACATATATCAGAATATGG [XGTACX_site42] | 8.73 ± 0.43 |
| TTTTTTTTTTATGTTATTAAAAAAAAAAAAAATTAA [CACACA_negctrl_site222] | 7.79 ± 0.34 |
| AAGATACACTTAATCGCACACGAAATTATATATTTA [CACACA_site3063] | 8.96 ± 0.42 |
| TATAACATTGTATGAATGCACTTTTATCTATTTTAA [GTGCAC_site9903] | 8.68 ± 0.47 |
| ATGAGAAAATATATTATTTTATATGAACAAGTTTAT [XGTACX_negctrl_site372] | 8.51 ± 0.4 |
| AAAATTATATATTATAGTACATAAAATATTGATAAA [XGTACX_site8988] | 8.61 ± 0.5 |
| AAATGTTATATATAATGTACTTGTAAGAACGTTCCT [XGTACX_site2840] | 8.73 ± 0.44 |
| ATAATTTTAAATAAATGTACATATAGATGTGTGTAA [XGTACX_site3958] | 8.9 ± 0.42 |
| AATAATGTATGAAATAAACACACAAGTAAGTACATA [CACACA_site8776] | 9.29 ± 0.5 |
| ATAATATGAAACTAAGGTACACATATATTAACAGAG [XGTACX_site3842] | 8.97 ± 0.54 |
| TACAAATTAATATGTACACACAAATATATATATATA [CACACA_site1977] | 9.41 ± 0.19 |
| TGCGACCATAATAAAGCACACAATGAAAAATATATA [CACACA_site256] | 8.93 ± 0.45 |
| TGTGCTCAAAATTATGCACACACCTAAAATTAATTT [CACACA_site8950] | 8.95 ± 0.33 |
| TAAGTATACTCATACACACACACACTAGAAAAAAAA [CACACA_site4397] | 9.68 ± 0.25 |
| AGAGATACATAAAAAAGTACATATAAAATTTAGGAA [XGTACX_site7201] | 8.88 ± 0.49 |
| TATTTATTTATATACACACACTTGTATAAAAAATGT [CACACA_site7048] | 9.02 ± 0.36 |
| TTTTTTTTTTTTTATTGTACATGCAAAAAATTCCAC [XGTACX_site2371] | 8.47 ± 0.42 |
| GTAAGTATATATAAATGTACTTATGAGGTCAAATTA [XGTACX_site3392] | 8.8 ± 0.4 |
| TTGGGTATTTTGTGCGCACACACATGCAAAAAGAAA [CACACA_site8299] | 9.36 ± 0.45 |

| Sequence | gcPBM binding intensity (ln) |
| --- | --- |
| TCTGTATTTCCTTATGCATGCATTAGCAAGATAATA [TGCATGCA_site483] | 8.78 ± 0.35 |
| ATATATATATATTGTAGTACTTATTAAATTATTTAT [XGTACX_site6235] | 8.84 ± 0.23 |
| TATACATATTTTATAGCACACAAATAATAATATGTA [CACACA_site8129] | 8.69 ± 0.44 |
| CCAACTATATTATGAAGTACATATATATTATATATA [XGTACX_site5767] | 8.7 ± 0.26 |
| AAACCTACATAACATACACACGCATATATATAATTT [CACACA_site8923] | 9.31 ± 0.38 |
| AAAGGTAAGCAGAATAGTACAGAAGAAAAAATATTT [XGTACX_site2941] | 8.96 ± 0.63 |
| TTTTGTTTGTTCGTGACTACATTATGTTGTAAATAC [CACACA_negctrl_site604] | 8.93 ± 0.41 |
| CAACATTTGAGACACACACACATACAAACAAACAAA [CACACA_site7538] | 9.86 ± 0.41 |
| ATCAAAAAAAAAAAATTTTTTTTTTTGTTTGTTTCC [CACACA_negctrl_site1042] | 8.27 ± 0.63 |
| TATCCTATAAATAATACATGCATATATATATATATT [TGCATGCA_site638] | 9.03 ± 0.23 |
| AAATAGTATATAATATGTACATACATAAAAATGTAT [XGTACX_site3524] | 8.9 ± 0.46 |
| ACCTATGTATATTATACACACTCCAAACTATTATTT [CACACA_site1817] | 9.06 ± 0.52 |
| TTATATATATAGAAGTGTACAAAATTTCCTAGACCT [XGTACX_site3900] | 8.88 ± 0.42 |
| ATCAAAATGTTAAAGATACACACCTAACAAACACAA [CACACA_site955] | 9.2 ± 0.35 |
| GCACGCTGTATGAATGCACACATTCATAGAATTGCT [CACACA_site8852] | 9.04 ± 0.35 |
| TATAAATATTTATAAACACACAAATATATATATTTA [CACACA_site27] | 8.6 ± 0.48 |
| TATCGACATTTCATTTGTACATATATACATATATTT [XGTACX_site3346] | 9.01 ± 0.4 |
| AAGAAAATTAAATTAACACACATAAATATGTAAATA [CACACA_site6882] | 9.06 ± 0.46 |
| CCAATAATATATAGAAGTACAGAAAAAAAAAAAAAA [XGTACX_site2049] | 8.64 ± 0.42 |

| Sequence | gcPBM binding intensity (ln) |
| --- | --- |
| CCCTCTTCTCTCATATCACACATGTCATCCTTATCC [CACACA_site5078] | 9.21 ± 0.52 |
| GAAAAATGAAGAGAACAAAATTTTATGATATATATA [GTGCAC_negctrl_site231] | 8.74 ± 0.42 |
| CCTTGAACCCCACTAACACACACACCCACGCTCAGA [CACACA_site8976] | 9.66 ± 0.17 |
| TTTCATAAATAAATATGTACATAATTAATAATAAAT [XGTACX_site5882] | 8.63 ± 0.47 |
| ATTTCACAGAAACACACACACAATATATTTCCTTTT [CACACA_site3904] | 9.56 ± 0.28 |
| ATATGTATATATATTTGTACGTAAAATGAAATCTAA [XGTACX_site213] | 8.96 ± 0.4 |
| TATACATAGATATATACACACATATATTTATATACA [CACACA_site6328] | 8.95 ± 0.41 |
| ATTACAAAAAAAAAAAAAAAAAAAAAAAAAAAAAAA [CACACA_negctrl_site448] | 8.13 ± 0.29 |
| ACAATAAAAATTTATGCATGTGAATTGAAAAAAAAA [TGCATGCA_site1037] | 8.72 ± 0.48 |
| CTTATATATATATCATGTACTTATGTATTTAAGAAT [XGTACX_site3307] | 8.61 ± 0.43 |
| AATATATACAATATATGTACATATATATACACATAT [XGTACX_site4190] | 8.98 ± 0.39 |
| CTTTTATTAAAATTCACACACATAAACTTTTATAAA [CACACA_site7027] | 8.71 ± 0.39 |
| ATAAAATACCTATAAACACACATATAAACAGACATA [CACACA_site7213] | 9.25 ± 0.33 |
| GTTATTGAAAAAATAGTGCAATATAACAAAGTAAAA | 8.85 ± 0.48 |
| AAATAAAACAAACACACACACACATACACAAAAAAA [CACACA_site3849] | 10.12 ± 0.035 |
| TAATTTCTTATGTATTGTACAAATAATATATGATAT [XGTACX_site611] | 8.54 ± 0.29 |
| TATATATTTCGGTGTGCACACTTTTTATTTTTATCC [CACACA_site1726] | 9.57 ± 0.41 |
| TATATATATATATGTACACACATATATACCTTTCAT [CACACA_site2679] | 9.75 ± 0.44 |
| GGAATGTAGGGTTTTACCAAAATAAAAATAACCATA [XGTACX_negctrl_site492] | 8.71 ± 0.54 |

From the supplement of paper PMC11417369
